Measurements from patent US12296017B2, “Bioorthogonal compositions” (TAMBO, INC., priority 2017, dated 2025).
In brackets after ≈: the same amount, converted by molar mass. Where two headings read alike, the source gives them in different places.

Tests used:
[1] = system: local spontaneous adenocarcinoma; format: in vivo; details: canine; for tumor response: longest tumor diameter by CT scans
Text: […]. A tumor-bearing dog was given multiple treatments of Doxorubicin and Shasqi Tx (gel and doxorubicin pro-drug). […] Longest tumor diameter determined by CT scans.
The safety profile for tetrazine-modified gel injected locally, followed by TCO-doxorubicin pro-drug injected intravenously translates across species, including large animals.

[2] = Serum and tissue levels after TCO-Dox or Dox IV in gel-injected Balb/C mice; format: in vivo; details: 5 minutes post-infusion, tetrazine-modified gel injected locally
Procedure: FIGS. 18A and 18B is a set of graphs showing that Shasqi Tx (Tetrazine-modified gel injected locally; followed by TCO-doxorubicin pro-drug injected intravenously) reduces systemic exposure to cytotoxic chemotherapy. Mice injected with tetrazine-modified gel are given TCO-Dox or Doxorubicin intravenously. Serum and tissues are harvested 5 min post-injection to reflect Cmax analyzed by LC-MS/MS. […] Shasqi Tx, n=1; Dox, error bar represents SD of n=2. […] Mean±SEM of n=2.
Balb/C mice injected with tetrazine-modified gel were given TCO-Dox or Dox IV, and serum and organs were harvested 5 minutes post-infusion and analyzed.

[3] = system: luminescent methicillin-sensitive S. aureus (MSSA)
[4] = system: luminescent methicillin resistant Staphylococcus aureus (MRSA); details: for bacterial load by culture of excised thigh muscle: 24 hours post-inoculation
[5] = Acute 7-day MTD study in Sprague-Dawley rats (prophetic); format: in vivo; details: expected result, intravenous
Procedure: An acute (single-dose) 7-Day Up or down maximum tolerable dose (MTD) study can be performed in Sprague-Dawley Rats for 3 rounds for TCO-PLX3397 and PLX3397 administered intravenously. Results from this study will help inform dosage levels for subsequent single-dose and repeat-dose studies based on tolerability. Initial dosage is based on the previously examined intravenous concentration of PLX3397 of 1 mg/kg. This study is envisioned to employ 3 groups of 3 male and 3 female rats for each compound (36 animals total). […] Based on the reported side effects of PLX3397, rats may also be monitored for fatigue and diarrhea and blood draws (200 μL) performed daily to screen for anemia, hyponatremia, and neutropenia. After 7 days, animals may be sacrificed and gross tissue histology to assay for tissue damage and inflammation. At the end of 3 rounds, the highest dose with no overt toxicities is deemed the MTD. The number of animals to be used in each group is consistent with standard protocols for toxicokinetic profiling in rats.

[6] = system: collagen-induced arthritis; experiment: Collagen-induced arthritis model in Lewis rats (prophetic); format: in vivo; details: expected result, combination with TAG
[7] = within 24 hours, Cy5-modified alginate TAG, 69 μmole/kg IV, mice

Question: Which results are given for `COc1cccc2c1C(=O)c1c(O)c3c(c(O)c1C2=O)CC(O)(C(=O)CO)CC3OC1CC(NC(=O)OC2C=CCCCCC2)C(O)C(C)O1` (stereo not shown) [TCO-doxorubicin]?
Answer: body weight change [1]: gain in body weight; cardiotoxicity by serial echocardiogram ([1]; despite nearly 12-fold the lifetime MTD): did not reveal any signs of cardiotoxicity; tumor response [1]: reduction in tumor size followed by stable disease; side effects ([1]; multiple cycles with tetrazine-modified gel): no major side effects; cumulative dose given relative to maximum lifetime dose (MTD) of Dox without major side effects ([1]; listed as TCO-Dox pro-drug): ~12 fold; amount of activated Dox in heart, liver and gel relative to control treatment [2]: reduced the amount of activated Dox in the heart and liver, yet increased the amount in the gel

Question: With `CN[C@H](CC(C)C)C(=O)N[C@H]1C(=O)N[C@@H](CC(N)=O)C(=O)N[C@H]2C(=O)N[C@H]3C(=O)N[C@H](C(=O)N[C@H](C(=O)O)c4cc(O)cc(O)c4-c4cc3ccc4O)[C@H](O)c3ccc(c(Cl)c3)Oc3cc2cc(c3O[C@@H]2O[C@H](CO)[C@@H](O)[C@H](O)[C@H]2O[C@H]2C[C@](C)(NC(=O)OC3/C=C/CCCCC3)[C@H](O)[C@H](C)O2)Oc2ccc(cc2Cl)[C@H]1O` (stereo partly shown) [Vanco-R-TCO] as the compound, how does the “in vitro activity lower than regular vancomycin” value ([3]; MIC with TAG, 2.0 vs. 0.5 nmoles/mL) read?
Answer: 4 fold

Question: What about the “bacterial load by culture of excised thigh muscle” value ([4]; Cy5-modified alginate TAG, 69 μmole/kg IV, mice) of the same compound?
Answer: equivalent efficacy to regular vancomycin

Question: What about the “bacterial load by culture of excised thigh muscle” value ([4]; Cy5-modified alginate TAG, 69 μmole/kg IV, mice, listed as TCO-vanco) of the same compound?
Answer: reduce bacterial load greater than the control

Question: And the “luminescent bacteria by IVIS in vivo imaging” value (from here on “luminescent bacteria by IVIS”) ([4]; control experiment: (control) gel and Vanco-R-TCO)?
Answer: luminescent bacteria were observed

Question: What about the “luminescent bacteria by IVIS” value [4, 7] of the same compound?
Answer: undetectable

Question: And the “luminescent bacteria by IVIS” value ([4]; within 24 hours, Cy5-modified alginate TAG, 69 μmole/kg IV, mice, listed as TCO-vanco)?
Answer: eliminate luminescent bacteria within 24 h

Question: For `COc1cccc2c1C(=O)c1c(O)c3c(c(O)c1C2=O)C[C@@](O)(C(=O)CO)C[C@@H]3O[C@H]1C[C@H](N)[C@H](O)[C@H](C)O1` [doxorubicin, reference compound], which body weight change [1] is on record?
Answer: drop in body weight

Question: And the tumor response [1]?
Answer: disease progression (tumor growth)

Question: Which “side effects and MTD versus PLX3397” value [5] does the source give for `O=C(OC1/C=C/CCCCC1)n1cc(Cc2ccc(NCc3ccc(C(F)(F)F)nc3)nc2)c2cc(Cl)cnc21` (stereo not shown) [Example 8, TCO-pexidartinib] here?
Answer: reduced side effects and a much higher MTD

Question: And the “arthritic symptoms (disease score and histology)” value [6]?
Answer: dramatic reduction of arthritic symptoms

Question: For `CN[C@H](CC(C)C)C(=O)N[C@H]1C(=O)N[C@@H](CC(N)=O)C(=O)N[C@H]2C(=O)N[C@H]3C(=O)N[C@H](C(=O)N[C@H](C(=O)O)c4cc(O)cc(O)c4-c4cc3ccc4O)[C@H](O)c3ccc(c(Cl)c3)Oc3cc2cc(c3O[C@@H]2O[C@H](CO)[C@@H](O)[C@H](O)[C@H]2O[C@H]2C[C@](C)(N)[C@H](O)[C@H](C)O2)Oc2ccc(cc2Cl)[C@H]1O` [vancomycin, reference compound], which “minimum inhibitory concentration (MIC)” value ([3]; mixed with alginate TAG, luminescence measured 16 hours after addition of the bacteria) is on record?
Answer: 0.5 nmol/mL (≈ 0.725 µg/mL)

Question: And the “luminescent bacteria by IVIS” value [4, 7]?
Answer: undetectable

Question: And the “luminescent bacteria by IVIS” value ([4]; within 24 hours, Cy5-modified alginate TAG, 69 μmole/kg IV, mice, listed as vanco)?
Answer: eliminate luminescent bacteria within 24 h
